In article PMC4336329 (PLoS ONE, 2015):
The whole screen tested about 310,000 compounds, of which about 2,200 (0.71%) showed an effect of 50% or more. The effect is printed as a negative number. This is one part of the list.

Target: human ether-à-go-go-related gene (hERG) potassium channel (human, UniProt Q12809)
Test: primary screen, population patch clamp on CHO cells stably expressing hERG

Chain of human ether-à-go-go-related gene (hERG) potassium channel (Q12809 whole entry, looked up): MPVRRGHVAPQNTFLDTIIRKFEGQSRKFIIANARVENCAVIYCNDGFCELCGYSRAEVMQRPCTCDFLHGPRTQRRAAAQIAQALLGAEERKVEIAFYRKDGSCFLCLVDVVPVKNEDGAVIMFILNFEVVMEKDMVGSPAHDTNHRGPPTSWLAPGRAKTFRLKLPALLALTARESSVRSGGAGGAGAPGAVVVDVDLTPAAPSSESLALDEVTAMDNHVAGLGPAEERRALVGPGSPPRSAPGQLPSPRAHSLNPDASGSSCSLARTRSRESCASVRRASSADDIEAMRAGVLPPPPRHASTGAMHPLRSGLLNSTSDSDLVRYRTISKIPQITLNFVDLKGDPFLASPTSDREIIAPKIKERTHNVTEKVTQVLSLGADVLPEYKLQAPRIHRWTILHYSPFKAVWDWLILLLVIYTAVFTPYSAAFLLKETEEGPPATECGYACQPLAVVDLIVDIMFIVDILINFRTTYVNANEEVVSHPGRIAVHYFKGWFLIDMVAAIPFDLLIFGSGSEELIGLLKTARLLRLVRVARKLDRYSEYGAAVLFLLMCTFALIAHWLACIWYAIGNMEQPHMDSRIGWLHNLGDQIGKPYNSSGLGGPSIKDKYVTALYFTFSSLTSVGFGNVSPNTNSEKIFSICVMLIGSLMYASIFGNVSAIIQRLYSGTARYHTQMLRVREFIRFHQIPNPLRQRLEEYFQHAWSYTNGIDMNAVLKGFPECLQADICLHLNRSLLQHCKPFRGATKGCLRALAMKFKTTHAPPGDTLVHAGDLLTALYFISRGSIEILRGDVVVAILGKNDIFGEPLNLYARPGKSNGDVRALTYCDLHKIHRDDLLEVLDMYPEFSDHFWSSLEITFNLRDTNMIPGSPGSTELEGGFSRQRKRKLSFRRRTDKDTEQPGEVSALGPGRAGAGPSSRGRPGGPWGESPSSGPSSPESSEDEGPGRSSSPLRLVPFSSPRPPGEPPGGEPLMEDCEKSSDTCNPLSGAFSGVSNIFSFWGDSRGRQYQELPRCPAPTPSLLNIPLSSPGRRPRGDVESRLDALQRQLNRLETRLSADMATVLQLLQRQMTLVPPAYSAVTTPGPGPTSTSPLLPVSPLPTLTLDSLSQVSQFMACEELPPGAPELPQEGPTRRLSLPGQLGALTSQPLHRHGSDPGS

Compound | hERG current change (%, negative = inhibition) at 1uM
Cc1nn(-c2ccccc2)c(C)c1/C=C/C(=O)OCC(=O)Nc1ncc(C(F)(F)F)cc1Cl | -2.95%
CCc1ccccc1NC(=O)CCS(=O)(=O)c1ccc(C)cc1 | 9.16%
COc1ccc(C(=O)NCCCNC(=O)c2cnccn2)cc1Br | 10.1%
Cc1ccccc1-c1nnc(SC(C)C(=O)NC2CCCC2)o1 (stereo not shown) | -11.9%
COc1ccc(N2CCN(c3ncccc3C#N)CC2)cc1 | 11.4%
CC(Oc1ccc(NC(=O)c2ccco2)cc1)C(=O)N1c2ccccc2CC1C (stereo not shown) | 13.3%
NNC(=O)c1ccc(CSc2cccc3cccnc23)cc1 | 9.92%
Cc1cccc(N2CC(C(=O)Nc3nnc(SCC(=O)Nc4cc(C)on4)s3)CC2=O)c1 (stereo not shown) | 16.8%
O=C(NNC(=O)c1ccccc1C(=O)O)c1cc2ccccc2o1 | 12.5%
CC(=O)OCC1CCCC2=C(C)C(=O)CCC21COC(C)=O (stereo not shown) | -9.93%
COc1ccc(C(=S)N2CCCCCC2)cc1 | 4.81%
O=C(O)C1CC(O)CN1C(=O)c1ccco1 (stereo not shown) | 15.1%
O=C(Nc1nnc(C2=COCCO2)o1)C1CCCCC1 | 3.65%
O=C(NC1CCN(c2ncccn2)CC1)c1ccccc1Cl | 15.2%
COc1cccc(-c2cc(C(=O)O)[nH]n2)c1 | 6.41%
CCOC(=O)N1CCC(NC(=O)C2CCN(S(=O)(=O)N3CCCC3)CC2)CC1 | 6.83%
N#Cc1ccc(OCc2noc(-c3ccsc3)n2)cc1 | 15%
COc1ccc(N/C=C/C(=O)c2sc(-c3ccccc3)nc2C)cc1 | 17.2%
CCCNC(=O)Cc1cc(=O)[nH]c(=O)[nH]1 | 16.9%
CCCCCCn1c(CN2CCN(CCO)CC2)nc2c1c(=O)n(C)c(=O)n2C | -4.05%
O=C(CN1CCN(C(c2ccccc2)c2ccccc2)CC1)Nc1ccc(N2CCOCC2)cc1 | 10.9%
Cc1ccnc(NC(=O)CCc2c(C)nc3ncnn3c2C)c1 | 1.74%
Cc1ccc(S(=O)(=O)NCc2ccc(C(=O)N3CCN(Cc4ccccc4)CC3)cc2)cc1 | 3.2%
C=CCN1C(=O)C(CC(=O)Nc2ccc(OCCC)cc2)N(CCCN2CCN(Cc3ccccc3)CC2)C1=S (stereo not shown) | -3.08%
Cc1ccccc1-n1c(=O)/c(=C\c2ccco2)s/c1=C(/C#N)C(=O)Nc1ccccc1 | 3.73%
CC(C)(C)C(=O)N1CCC(O)(CS(=O)(=O)Cc2ccccc2)CC1 | 3.89%
COC(=O)C1CCN(C(c2ccc(OC)c(OC)c2)c2sc3nc(C)nn3c2O)CC1 (stereo not shown) | 1.78%
Cc1cccc(NC(=O)/C(=C\c2cccs2)NC(=O)c2ccccc2)c1 | -65.1%

Compound | hERG current change (%, negative = inhibition) at 1uM
COc1ccc(-c2nnc(SCC(=O)Nc3ncc(C)s3)n2-c2ccccc2)cc1OC | 9.39%
O=C(O)Cc1ccc2oc(-c3cccnc3)nc2c1 | 13.8%
COCCN(Cc1cc2cc(C)c(C)cc2nc1Cl)C(=O)N1CCOCC1 | 4.03%
C=CCNC(=O)COC(=O)c1cc(S(=O)(=O)N2CCOCC2)ccc1N1CCCCC1 | -8.92%
CC1CCCN(S(=O)(=O)c2ccc(NC(=O)CCN3C(=O)c4ccccc4C3=O)cc2)C1 (stereo not shown) | 5%
Cc1oc2cc3oc(=O)c4c(c3cc2c1C)CCC4 | -11.3%
Fc1ccc(F)c(NC2=NCCCCC2)c1 | 18.8%
O=C(Nc1ccccc1Cl)NC1(C(=O)N2CCC(O)CC2)CCCCC1 | 21.1%
Cc1cc(C)n2nc(C(=O)Nc3cccc(S(=O)(=O)N4CCCC4)c3)nc2n1 | 3.86%
CCCCCC(O)(CCN1CCCCC1)c1ccc(OCC)cc1.Cl (stereo not shown) | -82%
CC(/C=C(\NC(=O)c1ccccc1)C(=O)N=Nc1c(O)[nH]c2ccc(C)cc12)=C\c1ccccc1 | -1.93%
Cc1ccc(Nc2nc(C(=O)N3CCC(C(=O)NCc4ccccc4)CC3)cs2)cc1 | 6.41%
CC(C)n1cc(CN2CCC(Oc3ccc(C(=O)N4CCCCC4)cc3)CC2)cn1 | -18.9%
Cc1cccc2cc(/C=N/NC(=O)c3ccccc3O)c(Cl)nc12 | 8.13%
Cc1ccc2occ(/C=N/NC(=O)c3ccccc3Br)c(=O)c2c1 | 15.3%
COc1ccc(C(=O)NNC(=O)C23CC4CC(CC(C4)C2)C3)c(OC)c1 | 10.9%
O=[N+]([O-])c1cc([N+](=O)[O-])c(Oc2ccc(Cl)c3cccnc23)cc1NN1CCCCC1 | 9.13%
CCC(=O)Nc1ccc(C(=O)CSc2nnc(-c3ccccc3F)n2C2CC2)cc1 | 8.56%
CSc1nc(=S)n(-c2ccc([N+](=O)[O-])cc2)c(C)c1C(C)=O | -10.5%
COc1ccc(C(=O)NCC(=O)OCCCOC(=O)CNC(=O)c2ccc(OC)c(OC)c2)cc1OC | 5.65%
O=C(Nc1ccc(-n2cnnn2)cc1)c1cccc(S(=O)(=O)N2CCCC2)c1 | 7.79%
CCN(CC)c1ccc(NC(=O)CC2Oc3ccccc3NC2=O)c(C)c1 (stereo not shown) | -3.13%
NS(=O)(=O)c1ccc(CCNC(=O)COC(=O)c2nc(Cl)ccc2Cl)cc1 | 12.4%
Cc1ccc(S(=O)(=O)N2CCN(C(=O)C(C)Cn3nc(C)c(C)c3C)CC2)cc1C (stereo not shown) | -5.49%
COc1ccc(N2CCN(C(=S)NCc3ccccc3)CC2)cc1 | 11.9%
O=C(O)c1ccc(N/N=C/c2cn(Cc3ccccc3F)c3ccccc23)cc1 | -0.57%
O=C(COC(=O)c1ccc(Cl)c(S(=O)(=O)N2CCCC2)c1)NC1CCCC1 | 0.873%
